Measured values as given in publication PMC10575725.
Results are given in words; binding and its absence hold for the method and conditions named. Binding seen in cells or lysates may run through a third protein. Some entries that bind do so weakly or less than the wild type.

Chains of the proteins cited; added tags and fusions are not shown.
UniProt Q96P20: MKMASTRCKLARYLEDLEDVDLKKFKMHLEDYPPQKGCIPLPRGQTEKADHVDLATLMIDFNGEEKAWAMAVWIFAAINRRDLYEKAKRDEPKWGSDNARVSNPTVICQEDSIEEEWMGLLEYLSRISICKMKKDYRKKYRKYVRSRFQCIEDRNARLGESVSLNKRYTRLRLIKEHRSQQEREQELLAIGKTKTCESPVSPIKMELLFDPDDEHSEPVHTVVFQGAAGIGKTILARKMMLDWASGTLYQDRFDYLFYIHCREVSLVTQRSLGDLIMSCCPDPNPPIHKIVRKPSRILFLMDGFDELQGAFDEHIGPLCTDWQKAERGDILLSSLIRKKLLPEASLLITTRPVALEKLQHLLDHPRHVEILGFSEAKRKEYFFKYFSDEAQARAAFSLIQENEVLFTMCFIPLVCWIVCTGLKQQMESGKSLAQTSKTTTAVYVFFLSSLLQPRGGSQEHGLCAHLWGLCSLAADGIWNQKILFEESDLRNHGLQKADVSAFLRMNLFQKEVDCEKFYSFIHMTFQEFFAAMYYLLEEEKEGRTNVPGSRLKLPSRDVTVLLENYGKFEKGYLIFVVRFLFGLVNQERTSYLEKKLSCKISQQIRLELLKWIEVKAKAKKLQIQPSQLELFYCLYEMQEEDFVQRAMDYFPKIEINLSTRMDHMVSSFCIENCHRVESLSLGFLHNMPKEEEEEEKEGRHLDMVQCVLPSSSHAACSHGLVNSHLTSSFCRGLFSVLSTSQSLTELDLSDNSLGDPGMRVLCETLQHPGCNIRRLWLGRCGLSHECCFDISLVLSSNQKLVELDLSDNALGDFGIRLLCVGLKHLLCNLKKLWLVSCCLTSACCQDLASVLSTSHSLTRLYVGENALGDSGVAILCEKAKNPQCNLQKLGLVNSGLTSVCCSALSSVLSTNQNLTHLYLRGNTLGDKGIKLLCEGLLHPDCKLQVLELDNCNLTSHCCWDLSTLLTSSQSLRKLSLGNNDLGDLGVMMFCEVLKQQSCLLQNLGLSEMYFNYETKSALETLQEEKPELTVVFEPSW

Biological target: NLRP3, endogenous, THP-1 cells (human (endogenous in THP-1)) (UniProt Q96P20)
Test: co-IP; endogenous proteins in THP-1 cells, LPS-stimulated or LPS-primed and ATP-activated; IP buffer 1.0% NP-40, 50 mM Tris-HCl pH 7.4, 50 mM EDTA, 150 mM NaCl

B1: HERC5, endogenous, THP-1 cells (enzyme, UniProt Q9UII4 1-1024)
chain: MERRSRRKSRRNGRSTAGKAAATQPAKSPGAQLWLFPSAAGLHRALLRRVEVTRQLCCSPGRLAVLERGGAGVQVHQLLAGSGGARTPKCIKLGKNMKIHSVDQGAEHMLILSSDGKPFEYDNYSMKHLRFESILQEKKIIQITCGDYHSLALSKGGELFAWGQNLHGQLGVGRKFPSTTTPQIVEHLAGVPLAQISAGEAHSMALSMSGNIYSWGKNECGQLGLGHTESKDDPSLIEGLDNQKVEFVACGGSHSALLTQDGLLFTFGAGKHGQLGHNSTQNELRPCLVAELVGYRVTQIACGRWHTLAYVSDLGKVFSFGSGKDGQLGNGGTRDQLMPLPVKVSSSEELKLESHTSEKELIMIAGGNQSILLWIKKENSYVNLKRTIPTLNEGTVKRWIADVETKRWQSTKREIQEIFSSPACLTGSFLRKRRTTEMMPVYLDLNKARNIFKELTQKDWITNMITTCLKDNLLKRLPFHSPPQEALEIFFLLPECPMMHISNNWESLVVPFAKVVCKMSDQSSLVLEEYWATLQESTFSKLVQMFKTAVICQLDYWDESAEENGNVQALLEMLKKLHRVNQVKCQLPESIFQVDELLHRLNFFVEVCRRYLWKMTVDASENVQCCVIFSHFPFIFNNLSKIKLLHTDTLLKIESKKHKAYLRSAAIEEERESEFALRPTFDLTVRRNHLIEDVLNQLSQFENEDLRKELWVSFSGEIGYDLGGVKKEFFYCLFAEMIQPEYGMFMYPEGASCMWFPVKPKFEKKRYFFFGVLCGLSLFNCNVANLPFPLALFKKLLDQMPSLEDLKELSPDLGKNLQTLLDDEGDNFEEVFYIHFNVHWDRNDTNLIPNGSSITVNQTNKRDYVSKYINYIFNDSVKAVYEEFRRGFYKMCDEDIIKLFHPEELKDVIVGNTDYDWKTFEKNARYEPGYNSSHPTIVMFWKAFHKLTLEEKKKFLVFLTGTDRLQMKDLNNMKITFCCPESWNERDPIRALTCFSVLFLPKYSTMETVEEALQEAINNNRGFG
- binding: binds
